Data reported in the supplement of paper PMC6531468.
The other results are listed elsewhere or left out. Values come from read counts of a selection and are noisy. Each score is taken over the longer molecules that contain the sequence shown.

Columns and labels:
Test in all cases: 6-mer SELEX enrichment z-score vs GST control; IMP3 is the RNA-binding protein IGF2BP3; higher = more enriched by binding
IMP3 KH1-4 = settings: construct: KH1-4 (164-579); SELEX round: R4
Description: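 SELEX-seq with GST-tagged IMP3 KH1-4 (Pro164-Lys579) and an N40 RNA pool, round 4. 6-mer z-score of sequence-tag enrichment normalised to the corresponding GST SELEX round; RNA k-mers written as DNA (T for U).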

IMP3 RRM1-2 = settings: construct: RRM1-2 (1-163); SELEX round: R2
Chain of IMP3 RRM1-2 (chain, as listed by the source): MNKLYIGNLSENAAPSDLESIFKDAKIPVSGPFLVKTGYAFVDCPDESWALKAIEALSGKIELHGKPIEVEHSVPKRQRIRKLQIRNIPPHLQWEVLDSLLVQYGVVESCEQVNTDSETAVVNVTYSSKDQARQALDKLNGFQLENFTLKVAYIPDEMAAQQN
Description: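 SELEX-seq with GST-tagged IMP3 RRM1-2 (Met1-Asn163) and an N40 RNA pool, round 2. 6-mer enrichment z-score normalised to GST SELEX. RNA written as DNA (T = U).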

IMP3 full-length = IMP3 full-length (UniProt O00425); settings: construct: FL IMP3 (1-579); SELEX round: R4
Chain of UniProt O00425 (O00425 whole entry): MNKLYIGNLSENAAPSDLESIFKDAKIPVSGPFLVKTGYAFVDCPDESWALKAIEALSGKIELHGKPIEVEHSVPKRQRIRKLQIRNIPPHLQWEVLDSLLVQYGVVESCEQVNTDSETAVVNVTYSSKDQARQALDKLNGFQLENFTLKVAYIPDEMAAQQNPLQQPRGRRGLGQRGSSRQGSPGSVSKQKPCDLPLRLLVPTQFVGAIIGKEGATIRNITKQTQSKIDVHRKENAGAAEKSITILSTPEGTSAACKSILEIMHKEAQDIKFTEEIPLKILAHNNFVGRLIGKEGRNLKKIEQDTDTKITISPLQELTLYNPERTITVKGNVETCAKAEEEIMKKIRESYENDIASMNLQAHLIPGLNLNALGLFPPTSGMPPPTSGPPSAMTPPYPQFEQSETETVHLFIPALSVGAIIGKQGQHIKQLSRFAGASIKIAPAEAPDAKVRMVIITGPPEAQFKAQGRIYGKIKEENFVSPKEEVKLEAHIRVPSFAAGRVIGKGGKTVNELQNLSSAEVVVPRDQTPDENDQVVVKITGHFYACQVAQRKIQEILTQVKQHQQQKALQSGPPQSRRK
Description: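 SELEX-seq with GST-tagged full-length IMP3 and an N40 RNA pool, round 4. Each 6-mer is scored as an enrichment z-score of sequence tags containing it, normalised to the matching GST SELEX round. RNA written as DNA (T = U).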

IMP3 KH1-2 = settings: construct: KH1-2 (164-376); SELEX round: R4
Chain of IMP3 KH1-2 (chain, as listed by the source): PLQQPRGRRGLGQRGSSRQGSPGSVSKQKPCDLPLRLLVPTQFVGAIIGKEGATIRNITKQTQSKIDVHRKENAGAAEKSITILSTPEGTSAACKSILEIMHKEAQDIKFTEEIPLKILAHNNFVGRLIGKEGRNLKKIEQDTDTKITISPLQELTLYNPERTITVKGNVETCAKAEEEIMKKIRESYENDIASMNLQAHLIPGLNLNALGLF
Description: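 SELEX-seq with GST-tagged IMP3 KH1-2 (Pro164-Phe376) and an N40 RNA pool, round 4 (stringent 300/600 mM KCl washes). 6-mer z-score of sequence-tag enrichment normalised to the corresponding GST SELEX round; RNA k-mers written as DNA (T for U).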

IMP3 KH3-4 = settings: construct: KH3-4 (377-579); SELEX round: R4
Chain of IMP3 KH3-4 (chain, as listed by the source): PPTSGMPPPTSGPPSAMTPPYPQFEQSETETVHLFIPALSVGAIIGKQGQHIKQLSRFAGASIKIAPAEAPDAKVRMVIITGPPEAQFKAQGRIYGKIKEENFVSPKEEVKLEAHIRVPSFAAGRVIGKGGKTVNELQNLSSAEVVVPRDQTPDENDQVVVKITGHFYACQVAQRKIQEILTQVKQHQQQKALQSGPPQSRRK
Description: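 SELEX-seq with GST-tagged IMP3 KH3-4 (Pro377-Lys579) and an N40 RNA pool, round 4. 6-mer z-score of sequence-tag enrichment normalised to the corresponding GST SELEX round; RNA k-mers written as DNA (T for U).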

Chain of IMP3 KH1-4 (chain, as listed by the source): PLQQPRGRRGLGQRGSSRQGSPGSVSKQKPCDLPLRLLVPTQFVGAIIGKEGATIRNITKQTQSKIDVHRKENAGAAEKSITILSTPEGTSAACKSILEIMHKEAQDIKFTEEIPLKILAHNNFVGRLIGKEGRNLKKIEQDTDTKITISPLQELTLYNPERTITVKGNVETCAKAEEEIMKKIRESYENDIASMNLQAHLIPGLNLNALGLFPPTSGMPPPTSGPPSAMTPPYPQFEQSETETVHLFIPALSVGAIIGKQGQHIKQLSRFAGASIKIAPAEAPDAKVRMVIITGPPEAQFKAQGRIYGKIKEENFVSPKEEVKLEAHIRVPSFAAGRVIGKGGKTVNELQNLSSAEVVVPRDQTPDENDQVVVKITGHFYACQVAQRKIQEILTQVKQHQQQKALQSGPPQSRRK

Sequence | 6-mer SELEX enrichment z-score (IMP3 KH1-4) | 6-mer SELEX enrichment z-score (IMP3 RRM1-2) | 6-mer SELEX enrichment z-score (IMP3 full-length) | 6-mer SELEX enrichment z-score (IMP3 KH1-2) | 6-mer SELEX enrichment z-score (IMP3 KH3-4)
TAAGTA | 0.239 | -0.202 | -0.225 | 0.149 | 0.65
TCCGGC | 0.347 | 0.146 | 0.976 | 0.206 | 0.107
AGGATT | 0.862 | -0.143 | 0.123 | 0.674 | 1.12
GATTCG | -0.043 | -0.155 | -0.087 | -0.129 | 0.087
GTTGGC | 0.328 | 0.44 | 0.493 | 0.356 | 0.279
CCCGCT | -0.535 | -0.155 | -0.293 | -0.295 | -0.707
GGGCGC | -0.795 | 0.15 | 0.284 | -0.372 | -0.523
TGAGGG | 0.562 | -0.023 | 0.27 | 0.679 | 0.791
TGGGAT | 0.348 | 0.233 | 0.171 | 0.333 | 0.501
AGACAG | 0.546 | -0.197 | 0.571 | 0.539 | 0.444
GTTATG | 0.275 | 0.134 | -0.114 | 0.086 | 0.264
GTTCGT | -0.208 | 0.369 | -0.095 | -0.187 | -0.06
ACCGGT | -0.291 | -0.285 | -0.131 | -0.362 | -0.35
TCTTTA | 0.555 | 0.347 | 0.219 | 0.552 | 0.671
CTTGGA | -0.546 | 0.034 | -0.255 | -0.488 | -0.549
TCGACG | -1.76 | -0.087 | -0.703 | -1.59 | -1.55
GCGGCC | 1.09 | 0.028 | 1.82 | 0.935 | 1.01
TGAAAT | 0.859 | -0.958 | -0.642 | 0.465 | 1.48
GCCTTA | -0.233 | -0.186 | -0.435 | -0.264 | -0.123
TTATCT | 0.518 | 0.385 | 0.118 | 0.438 | 0.531

Sequence | 6-mer SELEX enrichment z-score (IMP3 KH1-4) | 6-mer SELEX enrichment z-score (IMP3 RRM1-2) | 6-mer SELEX enrichment z-score (IMP3 full-length) | 6-mer SELEX enrichment z-score (IMP3 KH1-2) | 6-mer SELEX enrichment z-score (IMP3 KH3-4)
CCTAGG | -0.485 | 0.043 | -0.335 | -0.43 | -0.474
GAGACA | -0.316 | -0.539 | -0.254 | -0.384 | -0.282
GGTTCT | -0.064 | 0.458 | 0.079 | 0.024 | 0.177
TGGGGA | 0.7 | -0.041 | 0.298 | 0.79 | 0.828
GCAATT | 0.651 | 0.217 | 0.42 | 0.549 | 0.837
TCCAGA | -0.173 | -0.309 | -0.328 | -0.235 | -0.343
CTGGAG | -0.499 | -0.112 | -0.205 | -0.395 | -0.431
ACGCCC | -0.865 | -0.866 | -0.94 | -0.641 | -1.61
AGGTTC | -0.013 | 0.283 | 0.153 | 0.012 | 0.148
GGGTGA | 0.164 | -0.139 | 0.182 | 0.285 | 0.383
TACTAA | 0.803 | 0.17 | -0.32 | 0.855 | 1.04
GGACCA | -0.283 | 1.33 | -0.06 | -0.427 | -0.568
ACGGCT | 0.599 | 0.33 | 0.917 | 0.281 | 0.648
TCCCTG | -0.246 | -0.375 | -0.573 | -0.363 | -0.704
CTTTCC | 0.742 | 0.082 | -0.162 | 0.666 | 0.102
ATGATA | 2 | -0.575 | 0.172 | 1.44 | 2.66
AACTCT | -0.338 | -0.279 | -0.658 | -0.182 | -0.44
TGCAGG | 1.07 | 0.235 | 0.747 | 0.924 | 0.788
GCATCC | 0.383 | 0.291 | 1.45 | 0.178 | -0.488
ACGAAT | 0.453 | -1.03 | -0.58 | 0.135 | 0.711

Sequence | 6-mer SELEX enrichment z-score (IMP3 KH1-4) | 6-mer SELEX enrichment z-score (IMP3 RRM1-2) | 6-mer SELEX enrichment z-score (IMP3 full-length) | 6-mer SELEX enrichment z-score (IMP3 KH1-2) | 6-mer SELEX enrichment z-score (IMP3 KH3-4)
ACCTTC | -0.329 | 0.07 | -0.552 | -0.185 | -0.769
CTAGCA | -0.033 | 0.287 | 0.17 | -0.06 | -0.163
AAGCCC | -1.5 | -1.3 | -1.66 | -1.25 | -1.94
CCGCCG | -0.151 | -0.612 | 0.277 | 0.327 | -0.702
CGCTGC | 0.153 | -0.001 | 0.212 | 0.265 | -0.177
GTCTTT | 0.01 | 0.497 | 0.217 | 0.055 | 0.232
CCTCGC | -0.829 | -0.125 | -0.273 | -0.508 | -1.03
ACTGCA | 1.14 | 0.061 | 0.704 | 1.31 | 0.377
GCTTGG | -0.332 | 0.366 | 0.092 | -0.205 | -0.159
CACAGT | 0.861 | 1.22 | 1.77 | 0.748 | 0.263
CGCATA | 0.659 | 0.413 | 0.704 | 0.646 | 0.464
GTTCCG | -0.116 | -0.038 | 0.021 | -0.066 | -0.199
TGCGCT | -0.092 | 0.222 | 0.087 | -0.023 | -0.014
CTTACT | 0.487 | 0.118 | -0.114 | 0.487 | 0.367
ACAGTC | 0.973 | 0.675 | 1.45 | 0.69 | 0.255
CGGATT | 0.231 | -0.149 | 0.033 | 0.115 | 0.42
CTTGTC | -0.099 | 0.333 | 0.119 | -0.153 | -0.157
AAGAGA | 0.412 | -1.59 | -0.86 | 0.162 | 1.03
CTCACC | -0.737 | 0.199 | -0.589 | -0.621 | -1.29
TTCATG | 0.976 | 0.777 | 1.06 | 0.841 | 0.859
